The record followed here is PMC12136788.

The other results are listed elsewhere or left out.

The labels stand for the following.
B1: chr3:196311055:196311056:+_ENSG00000174013_ENST00000440469|hu_mus|motif|central (ssRNA)
RNA: GGGAGUUCUACAGUCCGACGAUCGGCUUUUGGAAGUCCUCGAAAGGCAACCCCCAGGAACUCAUACCCACGCUCAAAAGCGGAAGUCUUAUCCUCCAUGUCCAGGAUGACUCGGAUUCUCUCUCCUAUCUGAUACUUUGGUGCCAACAGAGGAUUGAGCAUCA
B2: chr9:122289238:122289239:+_ENSMUSG00000032540_ENSMUST00000156520|mus_mus|motif|central (ssRNA)
RNA: GGGAGUUCUACAGUCCGACGAUCUCCUGUCUUUUACAUCAAAACCUAACCCUUUCGUUCCAUUUCAAAAUGAAAUAUUCGGAACUCCAUCUCAAAAAUGAAGUAUUCUAAAUUGAAAUCUUUUUACAUAAAAAUACUUGGGUUCAACAGAGGAUUGAGCAUCA
B3: chr5:143665172:143665173:-_ENSMUSG00000029580_ENSMUST00000100497|perfect_dup|FALSE|FALSE (ssRNA)
RNA: GGGAGUUCUACAGUCCGACGAUCGGCUUUUAGGAUGGCAAGGGACUUCCUGUAACAACGCAUCUCAUAUUUGGAAUGACUAUUAAAAAAACAACAAUGUGCAAUCAAAGUCCUCGGCCACAUUGUGAACUUUGGGGGAUGCUCCAACAGAGGAUUGAGCAUCA
B4: chr11:46405157:46405158:+_ENSG00000110492_ENST00000395566|hu_hu|hu_hu_hu_mus_False|98_98 (ssRNA)
RNA: GGGAGUUCUACAGUCCGACGAUCCCCUCCCCACUUUGGCUGGGGAGUGUGGGCGUGAGAGGACAGGCGUGAUUGACAGAGCUGACAGGAAGACAAAAGGCACUGGUGGGUUAUAUCUUGGGCCUGUGGGAGAGGAGGGCUCCGCAACAGAGGAUUGAGCAUCA
B5: chr10:62048396:62048397:-_ENSMUSG00000020075_ENSMUST00000045866|mus_hu|FALSE|FALSE (ssRNA)
RNA: GGGAGUUCUACAGUCCGACGAUCAGCUUCCACAGCUCCCUUCUCCUCUAUCAGCUUCUCAGCUGAUUGUUUGAAGUGACUAAUGGCAGUGGGAGGCACGGAAUCCAAAAGCCUGAUGGCAUCUUUGCUGGAAGCUUUUAUUAUCAACAGAGGAUUGAGCAUCA
B6: chr6:41757443:41757444:+_ENSG00000214736_ENST00000398881|hu_mus|hu_hu_hu_mus_False|78_78 (ssRNA)
RNA: GGGAGUUCUACAGUCCGACGAUCGAACCGUGCAGAGGCAACAUCUCAGCCGACACUGUGGACUCAAGGGGCAGUGGGGGGGGGUUCAGGCAAGGAGAGGGAGUCAACUUCAGCUGCCACUCAGGUAGGAUCUUGUGGUCACAGCAACAGAGGAUUGAGCAUCA
B7: 135676400_135676520_66_CDS_ENSG00000082258_ENST00000295238|human|control|control (ssRNA)
RNA: GGGAGUUCUACAGUCCGACGAUCUUUAUCCGCCUCCACUCCGCAGCGGCGGCUCGGCGUGUUCUCCAGCUGUUCCCGAGUAAAGAACCAGCGAGAAGAAGCUCCACGGCCCGACGCCAUGACACUUCCUCCUCCGCCCGCUCCCAACAGAGGAUUGAGCAUCA
B8: chr16:45382771:45382772:-_ENSMUSG00000022661_ENSMUST00000163230|mus_mus|mus_mus_mus_hu_True|68_98 (ssRNA)
RNA: GGGAGUUCUACAGUCCGACGAUCCUGGGUCAUGUUAUGGGCCCAAUGGACAGGGAGGGCAUGCUUCUGUAAAGAUGUGAGCUAUUGUCUAAGACUAACAAUAUUUAUCUAGCUAUAAAAAUAAGUUAAAUGAAUAAGUUAAGACAACAGAGGAUUGAGCAUCA
B9: chr11:87793471:87793472:-_ENSMUSG00000020483_ENSMUST00000020775|mus_mus|mus_mus_mus_hu_False|1_48 (ssRNA)
RNA: GGGAGUUCUACAGUCCGACGAUCUGGACUUGAAAAUAAAAGAAUAAGCUGGAUCCCCCACCCCCCCACAUUGUCAACCCUACACGAGUUCUGAAUGGGCGACUCAUGAAAAUCAGCAGCUCAAACGGCAAUGACCACCCACCCCAACAGAGGAUUGAGCAUCA
B10: 8424412_8424532_2134_CDS_ENSG00000133026_ENST00000269243|human|control|control (ssRNA)
RNA: GGGAGUUCUACAGUCCGACGAUCCUUCUCGUGAUUUGGAAUGAUACAACGAACAAAGUUAGGGUUGGUGUUUCGGAGAGUUGCCAUCAGCUUGGUGAGAGAUUCUUUGUAGAGUUGCCCAACGGUACGAAACAUGCCCUUCUUCAACAGAGGAUUGAGCAUCA
B11: 56581479_56581681_1652_CDS_ENSG00000108389_ENST00000323456|human|control|control (ssRNA)
RNA: GGGAGUUCUACAGUCCGACGAUCAGAGCAGGUCCGCUUGUAGAUGUUGCGCUUCUCUCGCUCACAGGGGUUGUUGGCCAGGAAGGUGCCGUAGAGGCAGGAGUAUGUGUGUUGCACCAGUUUUACCAGGAAUGCUUCAUUAAACAACAGAGGAUUGAGCAUCA
B12: chr16:94690093:94690094:+_ENSMUSG00000040785_ENSMUST00000117648|mus_hu|mus_mus_mus_hu_True|28_48 (ssRNA)
RNA: GGGAGUUCUACAGUCCGACGAUCGGGCUGGGAUGACGGACACACAGCCUCGAUUCCAGGGGGAAAAAGUCUUAGUCGAUACUAAUUUAAAAAGUAUAAUGAUUUUUAUUACCAAAAUUACAUCUAUAAAAGAUGAAAAGCAAACAACAGAGGAUUGAGCAUCA
B13: chr4:76721835:76721836:+_ENSG00000138768_ENST00000264904|hu_mus|hu_hu_hu_mus_True|1_1 (ssRNA)
RNA: GGGAGUUCUACAGUCCGACGAUCGUUUGGCUGGGGUUUCUGAGACGCUCUGGAAUAUAACUCAUGUUUGCUAAUAAAUCCUAGUUUCUCUAUGAAAUUCUCUUUGCCAAUCCUCUUCUCUAUUAGUUGCUUUAGUUCUCUUUCCAACAGAGGAUUGAGCAUCA
B14: chr5:31223311:31223312:+_ENSMUSG00000029163_ENSMUST00000031055|mus_mus|FALSE|FALSE (ssRNA)
RNA: GGGAGUUCUACAGUCCGACGAUCUGCGGCCCCUGUAGAUAAGUUUGGUGGUCGGGUCCACCCUGUCUACACCUGUUCAAGCUCUGUGUCCUCGUAGAGCAGGGCUCCGCUGAAGAUGGUGAGCGGCUCCUCGGAGUGUGCCAGCAACAGAGGAUUGAGCAUCA

The target of the test is T1, UNK ZnF1-3 (human, UniProt Q9C0B0 31-174).
T1 sequence: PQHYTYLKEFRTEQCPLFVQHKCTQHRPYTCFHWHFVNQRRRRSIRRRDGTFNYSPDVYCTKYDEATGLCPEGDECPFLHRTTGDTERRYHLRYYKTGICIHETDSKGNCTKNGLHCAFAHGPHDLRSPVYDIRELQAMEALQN
The test is described as follows: nsRBNS (natural sequence RNA bind-n-seq); RBNS binding buffer (assumed for nsRBNS): 25 mM Tris pH 7.5, 150 mM KCl, 3 mM MgCl2, 0.01% Triton X-100, 500 ug/ml BSA, 20 U/ml SUPERase-In, 4 C; UNK is unkempt and MSI1 is Musashi-1; names of the RNAs are library labels; protein concentration not given here; high values mean tight binding.
Take B1: the binding signal amounted to 1.11 enrichment R.
Turning to B2, the binding signal is 0.92 enrichment R.
The same measure for B3: 1.15 enrichment R; for B4: 2.1 enrichment R.
The same measure for B5: 0.992 enrichment R; for B6: 1.97 enrichment R; for B7: 0.876 enrichment R.
On to B8, for which the binding signal stood at 1.05 enrichment R.
The same measure for B9: 2.17 enrichment R; for B10: 0.816 enrichment R.
Turning to B11, the binding signal amounted to 1.09 enrichment R.
B12 displayed a binding signal of 1.17 enrichment R.
The result for B13 reads 0.49 enrichment R; that for B14, 1.2 enrichment R.
